# In the supplement of paper PMC10441789:
# The other results are listed elsewhere or left out. Antibody binding of pooled human sera (four to six donors per pool; dilution not stated) to peptides of the Trypanosoma cruzi antigen TSSA on microarrays. Quantile-normalised fluorescence in arbitrary units, mean of duplicate arrays; higher = more binding. No active / inactive call. The uninfected pools are read here as the healthy donors of the same country. The strongest signals lie near the top of the scale (about 60,000).
# What was measured:
# Assay in all cases: antibody binding signal (normalised fluorescence) (arbitrary fluorescence units); higher = stronger serum antibody binding to peptide
# [1] = tested on: pooled sera of chronic Chagas disease patients, Argentina
# Method: (§1)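 Microarray of 15-residue peptides over residues 30-55 of Trypanosoma cruzi TSSAII, each with 1 to 10 substitutions at naturally variable positions, probed with one serum pool per country.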
# [2] = tested on: pooled sera of chronic Chagas disease patients, Bolivia
# Method: as §1
# [3] = tested on: pooled sera of chronic Chagas disease patients, Brazil
# Method: as §1
# [4] = tested on: pooled sera of chronic Chagas disease patients, Colombia
# Method: as §1
# [5] = tested on: pooled sera of chronic Chagas disease patients, Mexico
# Method: as §1
# [6] = tested on: pooled sera of chronic Chagas disease patients, USA
# Method: as §1
# [7] = tested on: pooled sera of uninfected people, Argentina
# Method: as §1
# [8] = tested on: pooled sera of uninfected people, Bolivia
# Method: as §1
# [9] = tested on: pooled sera of uninfected people, Brazil
# Method: as §1
# [10] = tested on: pooled sera of uninfected people, Colombia
# Method: as §1
# [11] = tested on: pooled sera of uninfected people, Mexico
# Method: as §1
# [12] = tested on: pooled sera of uninfected people, USA
# Method: as §1
sequence,measurement,setting,value
KTATGETPSPPGASS,antibody binding signal,[1],427
same,antibody binding signal,[2],529
same,antibody binding signal,[3],1970
same,antibody binding signal,[4],203
same,antibody binding signal,[5],281
same,antibody binding signal,[6],4890
same,antibody binding signal,[7],204
same,antibody binding signal,[8],252
same,antibody binding signal,[9],238
same,antibody binding signal,[10],129
same,antibody binding signal,[11],147
same,antibody binding signal,[12],457
SGKDNKPATGETPSQ,antibody binding signal,[1],35400
same,antibody binding signal,[2],27500
same,antibody binding signal,[3],38100
same,antibody binding signal,[4],431
same,antibody binding signal,[5],335
same,antibody binding signal,[6],25900
same,antibody binding signal,[7],485
same,antibody binding signal,[8],786
same,antibody binding signal,[9],290
same,antibody binding signal,[10],291
same,antibody binding signal,[11],1850
same,antibody binding signal,[12],129
PSGTENKTAAGGAPS,antibody binding signal,[1],50200
same,antibody binding signal,[2],23000
same,antibody binding signal,[3],44300
same,antibody binding signal,[4],9040
same,antibody binding signal,[5],5040
same,antibody binding signal,[6],10500
same,antibody binding signal,[7],1410
same,antibody binding signal,[8],662
same,antibody binding signal,[9],572
same,antibody binding signal,[10],593
same,antibody binding signal,[11],773
same,antibody binding signal,[12],541
DKKAAAGGTPSQPGA,antibody binding signal,[1],393
same,antibody binding signal,[2],220
same,antibody binding signal,[3],432
same,antibody binding signal,[4],4870
same,antibody binding signal,[5],357
same,antibody binding signal,[6],1450
same,antibody binding signal,[7],304
same,antibody binding signal,[8],100
same,antibody binding signal,[9],2240
same,antibody binding signal,[10],189
same,antibody binding signal,[11],317
same,antibody binding signal,[12],157
KKPAAGEAPSPPGAS,antibody binding signal,[1],255
same,antibody binding signal,[2],183
same,antibody binding signal,[3],7110
same,antibody binding signal,[4],195
same,antibody binding signal,[5],114
same,antibody binding signal,[6],9610
same,antibody binding signal,[7],314
same,antibody binding signal,[8],282
same,antibody binding signal,[9],98.3
same,antibody binding signal,[10],150
same,antibody binding signal,[11],80.8
same,antibody binding signal,[12],425
TPPSGTEKKTATGGA,antibody binding signal,[1],34800
same,antibody binding signal,[2],1690
same,antibody binding signal,[3],24200
same,antibody binding signal,[4],452
same,antibody binding signal,[5],4430
same,antibody binding signal,[6],2970
same,antibody binding signal,[7],1140
same,antibody binding signal,[8],285
same,antibody binding signal,[9],159
same,antibody binding signal,[10],112
same,antibody binding signal,[11],111
same,antibody binding signal,[12],249
SGTEKKPATGGTPSP,antibody binding signal,[1],4400
same,antibody binding signal,[2],789
same,antibody binding signal,[3],3980
same,antibody binding signal,[4],3190
same,antibody binding signal,[5],2510
same,antibody binding signal,[6],1900
same,antibody binding signal,[7],328
same,antibody binding signal,[8],1080
same,antibody binding signal,[9],1270
same,antibody binding signal,[10],310
same,antibody binding signal,[11],225
same,antibody binding signal,[12],841
PSGTDKKPATGGAPS,antibody binding signal,[1],4930
same,antibody binding signal,[2],775
same,antibody binding signal,[3],27400
same,antibody binding signal,[4],9900
same,antibody binding signal,[5],2950
same,antibody binding signal,[6],2880
same,antibody binding signal,[7],351
same,antibody binding signal,[8],1120
same,antibody binding signal,[9],183
same,antibody binding signal,[10],256
same,antibody binding signal,[11],1390
same,antibody binding signal,[12],268
GKDNKTAAGEAPSPP,antibody binding signal,[1],2550
same,antibody binding signal,[2],686
same,antibody binding signal,[3],2620
same,antibody binding signal,[4],5030
same,antibody binding signal,[5],3620
same,antibody binding signal,[6],6710
same,antibody binding signal,[7],288
same,antibody binding signal,[8],241
same,antibody binding signal,[9],138
same,antibody binding signal,[10],307
same,antibody binding signal,[11],130
same,antibody binding signal,[12],173
GTEKKAAAGGAPSPP,antibody binding signal,[1],913
same,antibody binding signal,[2],185
same,antibody binding signal,[3],242
same,antibody binding signal,[4],5540
same,antibody binding signal,[5],1210
same,antibody binding signal,[6],1340
same,antibody binding signal,[7],222
same,antibody binding signal,[8],419
same,antibody binding signal,[9],222
same,antibody binding signal,[10],145
same,antibody binding signal,[11],121
same,antibody binding signal,[12],143
SGKDKKPAAGETPSP,antibody binding signal,[1],921
same,antibody binding signal,[2],322
same,antibody binding signal,[3],2010
same,antibody binding signal,[4],1410
same,antibody binding signal,[5],886
same,antibody binding signal,[6],1840
same,antibody binding signal,[7],134
same,antibody binding signal,[8],123
same,antibody binding signal,[9],86
same,antibody binding signal,[10],1210
same,antibody binding signal,[11],70.7
same,antibody binding signal,[12],180
DNKPATGETPSQSGA,antibody binding signal,[1],38900
same,antibody binding signal,[2],33400
same,antibody binding signal,[3],37800
same,antibody binding signal,[4],222
same,antibody binding signal,[5],188
same,antibody binding signal,[6],27500
same,antibody binding signal,[7],258
same,antibody binding signal,[8],380
same,antibody binding signal,[9],389
same,antibody binding signal,[10],173
same,antibody binding signal,[11],1780
same,antibody binding signal,[12],159
SGTEKKTATGGAPSP,antibody binding signal,[1],4640
same,antibody binding signal,[2],275
same,antibody binding signal,[3],2160
same,antibody binding signal,[4],3850
same,antibody binding signal,[5],1560
same,antibody binding signal,[6],2090
same,antibody binding signal,[7],366
same,antibody binding signal,[8],650
same,antibody binding signal,[9],122
same,antibody binding signal,[10],122
same,antibody binding signal,[11],292
same,antibody binding signal,[12],158
KEKKPATGGTPSQSG,antibody binding signal,[1],380
same,antibody binding signal,[2],326
same,antibody binding signal,[3],185
same,antibody binding signal,[4],302
same,antibody binding signal,[5],208
same,antibody binding signal,[6],274
same,antibody binding signal,[7],185
same,antibody binding signal,[8],99.8
same,antibody binding signal,[9],237
same,antibody binding signal,[10],97.7
same,antibody binding signal,[11],88.1
same,antibody binding signal,[12],330
PSGTDNKTATGGAPS,antibody binding signal,[1],14800
same,antibody binding signal,[2],10200
same,antibody binding signal,[3],44000
same,antibody binding signal,[4],923
same,antibody binding signal,[5],961
same,antibody binding signal,[6],1080
same,antibody binding signal,[7],343
same,antibody binding signal,[8],683
same,antibody binding signal,[9],1530
same,antibody binding signal,[10],376
same,antibody binding signal,[11],299
same,antibody binding signal,[12],257
GKDNKAAAGGTPSQS,antibody binding signal,[1],224
same,antibody binding signal,[2],220
same,antibody binding signal,[3],181
same,antibody binding signal,[4],876
same,antibody binding signal,[5],525
same,antibody binding signal,[6],706
same,antibody binding signal,[7],124
same,antibody binding signal,[8],568
same,antibody binding signal,[9],463
same,antibody binding signal,[10],153
same,antibody binding signal,[11],220
same,antibody binding signal,[12],116
TSSTPPSGKDKKAAA,antibody binding signal,[1],29300
same,antibody binding signal,[2],680
same,antibody binding signal,[3],1350
same,antibody binding signal,[4],454
same,antibody binding signal,[5],46500
same,antibody binding signal,[6],785
same,antibody binding signal,[7],316
same,antibody binding signal,[8],319
same,antibody binding signal,[9],130
same,antibody binding signal,[10],151
same,antibody binding signal,[11],92.2
same,antibody binding signal,[12],189
GTDNKTATGGAPSPS,antibody binding signal,[1],448
same,antibody binding signal,[2],297
same,antibody binding signal,[3],25700
same,antibody binding signal,[4],722
same,antibody binding signal,[5],395
same,antibody binding signal,[6],476
same,antibody binding signal,[7],329
same,antibody binding signal,[8],678
same,antibody binding signal,[9],1970
same,antibody binding signal,[10],204
same,antibody binding signal,[11],294
same,antibody binding signal,[12],169
PPSGKDNKPAAGEAP,antibody binding signal,[1],1270
same,antibody binding signal,[2],6150
same,antibody binding signal,[3],25300
same,antibody binding signal,[4],536
same,antibody binding signal,[5],8610
same,antibody binding signal,[6],20800
same,antibody binding signal,[7],712
same,antibody binding signal,[8],807
same,antibody binding signal,[9],359
same,antibody binding signal,[10],331
same,antibody binding signal,[11],370
same,antibody binding signal,[12],246
SGTDKKPATGGTPSP,antibody binding signal,[1],1460
same,antibody binding signal,[2],2500
same,antibody binding signal,[3],26200
same,antibody binding signal,[4],11900
same,antibody binding signal,[5],2240
same,antibody binding signal,[6],1170
same,antibody binding signal,[7],289
same,antibody binding signal,[8],543
same,antibody binding signal,[9],764
same,antibody binding signal,[10],503
same,antibody binding signal,[11],1770
same,antibody binding signal,[12],246
